Measured values: the supplement of paper PMC8183993
Where “and” joins values, the source holds several entries; their conditions need not be identical. Identical values can stand only once. Counter-ions that a name gives are not always drawn. ± gives the standard deviation of the averaged measurements. Over roughly 3,100 compounds, “mean cytoplasmic OPP incorporation (global translation) relative to DMSO” has its median near 100; the lowest 2% begin near 56. Some of the results follow.

Test system: U2OS
Assay: mean cytoplasmic OPP incorporation (global translation) relative to DMSO (% of DMSO); higher = more protein synthesis
Conditions: 10 µM; 24 h
Procedure: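 Primary image-based screen in U2OS cells: compounds at 10 uM for 24 h, then a 1 h o-propargyl-puromycin (OPP) pulse, click labelling, and high-throughput microscopy. Mean cytoplasmic OPP intensity and nuclei count were normalised to DMSO wells within each plate (DMSO = 100) and averaged over triplicate plates.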

Compound | mean cytoplasmic OPP incorporation
Cc1c(N)c(=O)n(-c2ccccc2)n1C [Ampyrone] | 79.7
CCOC(=O)/C=C(C)/C=C/C=C(C)/C=C/c1c(C)cc(OC)c(C)c1C [Etretinate] | 95.4
CC(C)(C)c1cc(NC(=O)Nc2ccc(-c3cn4c(n3)sc3cc(OCCN5CCOCC5)ccc34)cc2)no1 [Quizartinib (AC220)] | 124
CN1CCN(c2ccc(-c3cccc(CN4CCOCC4)c3)cc2NC(=O)c2c[nH]c(=O)cc2C(F)(F)F)CC1 | 111
N#C/C(=C(/N)Sc1ccc(N)cc1)c1ccccc1C(F)(F)F | 121 and 97.2
COc1cc2nc(N3CCN(C(=O)C4COc5ccccc5O4)CC3)nc(N)c2cc1OC (stereo unspecified) [Doxazosin mesylate] | 114
O=c1c(O)c(-c2ccc(O)cc2)oc2cc(O)cc(O)c12 [Kaempferol] | 97.1
CCN(CC)C(=O)Nc1ccc(OCC(O)CNC(C)(C)C)c(C(C)=O)c1 (stereo unspecified) [Celiprolol HCl] | 99.6
CCCCC1C(=O)N(c2ccccc2)N(c2ccc(O)cc2)C1=O (stereo unspecified) [Oxyphenbutazone] | 69.3
N[C@H]1CONC1=O [(S)-(-)-Cycloserine] | 90.2
CNC(=O)c1ccc(N2C(=S)N(c3ccc(C#N)c(C(F)(F)F)c3)C(=O)C2(C)C)cc1F [MDV3100 (Enzalutamide)] | 107
COc1cc(OC)c(NC(=O)Nc2cc(C)on2)cc1Cl | 103
CC#CCn1c(N2CCC[C@@H](N)C2)nc2c1c(=O)n(Cc1nc(C)c3ccccc3n1)c(=O)n2C [Linagliptin (BI-1356)] | 112
CCN(CC)CCOCCOC(=O)C1(c2ccccc2)CCCC1 [Carbetapentane citrate] | 102.2 ± 0.32
COc1cc(NC(=O)c2ccccn2)ccc1Cl | 86.5
CCN(CCCCOC(=O)c1ccc(OC)c(OC)c1)C(C)Cc1ccc(OC)cc1 (stereo unspecified) [Mebeverine hydrochloride] | 109
CCN(CC)C(=O)C1(c2ccccc2)CC1CN (stereo unspecified) [Milnacipran HCl] | 92.2
Cc1cc(C(C)(C)C)cc(C)c1CC1=NCCN1 [Xylometazoline hydrochloride] | 94.9
CC(C)(CO)[C@@H](O)C(=O)NCCC(=O)O [Pantothenic acid (pantothenate)] | 98.9
O=c1nc2ccccc2c2n1CC(CN1CCN(c3ccccc3)CC1)N2 (stereo unspecified) | 101
O=P(O)(O)C(O)(Cn1ccnc1)P(=O)(O)O [Zoledronic Acid (Zoledronate)] | 99
CO[C@H]1/C=C/O[C@@]2(C)Oc3c(C)c(O)c4c(O)c(c5c(nc6cc(C)ccn65)c4c3C2=O)NC(=O)/C(C)=C\C=C\[C@H](C)[C@H](O)[C@@H](C)[C@@H](O)[C@@H](C)[C@H](OC(C)=O)[C@@H]1C [Rifaximin (Xifaxan)] | 123
CO[C@H]1/C=C/O[C@@]2(C)Oc3c(C)c(O)c4c(O)c(c5c(nc6cc(C)ccn65)c4c3C2=O)NC(=O)/C(C)=C\C=C\[C@H](C)[C@H](O)[C@@H](C)[C@@H](O)[C@@H](C)[C@H](OC(C)=O)[C@@H]1C [Rifaximin] | 101
C[C@]12C=CC(=O)N[C@@H]1CC[C@@H]1[C@@H]2CC[C@]2(C)[C@@H](C(=O)Nc3cc(C(F)(F)F)ccc3C(F)(F)F)CC[C@@H]12 [Dutasteride] | 109
Clc1cccc(Cl)c1NC1=NCCN1 [Clonidine hydrochloride] | 96.56 ± 0.3
CCN(CC)c1ccc(/C=N/NC(=O)c2ccc(O)cc2)cc1 | 94.8

Compound | mean cytoplasmic OPP incorporation
CC(=O)O[C@]1(C(C)=O)CC[C@H]2[C@@H]3C=C(Cl)C4=CC(=O)CC[C@]4(C)[C@H]3CC[C@@]21C [Chlormadinone acetate] | 111
CN1CCN(CCc2ccc(Cl)c(Cl)c2)CC1 [BD 1063 dihydrochloride] | 96.7
CCN(CC)C(C)CN1c2ccccc2Sc2ccccc21 (stereo unspecified) [Ethopropazine hydrochloride] | 108
CCCNC(=O)NS(=O)(=O)c1ccc(Cl)cc1 [Chlorpropamide] | 101
COc1ccc(-c2nc(N3CCOCC3)c3sc(CN(C)c4ncc(C(=O)NO)cn4)cc3n2)cn1 | 86.6
Cc1cnc(Nc2ccc(OCCN3CCCC3)cc2)nc1Nc1cccc(S(=O)(=O)NC(C)(C)C)c1 | 82.6 and 66.4
CC=CC(=O)N(CC)c1ccccc1C [Crotamiton] | 99
CC1=C(C)C(=O)C(C(CCCCCC(=O)O)c2ccccc2)=C(C)C1=O (stereo unspecified) [Seratrodast] | 97.1
CNCCc1ccccn1 [Betahistine mesylate] | 97.5
Cc1nc2c([nH]1)-c1ccccc1N(C(=O)c1ccc(NC(=O)c3ccccc3-c3ccccc3)cc1)CC2 [Conivaptan HCl (Vaprisol)] | 110
c1ccc2c(CCNc3ccc(Nc4ccncc4)cc3)c[nH]c2c1 | 103
CC(C)CCNC(=O)[C@H](CC(C)C)NC(=O)[C@H]1O[C@@H]1C(=O)O | 101
NCCCCCC(=O)O [Aminocaproic acid] | 94.5
CN(C)C(=N)NC(=N)N [Metformin hydrochloride] | 101
COc1c(C)cnc(Cn2cnc3c(Cl)nc(N)nc32)c1C | 77.2
COc1ccc2c(Oc3ccc(NC(=O)c4c(C)n(CC(C)(C)O)n(-c5ccccc5)c4=O)nc3)ccnc2c1 | 112 ± 6.7
Nc1nc2c(ncn2COC(CO)CO)c(=O)[nH]1 [Ganciclovir] | 102
Cc1csc(-c2nnc(Nc3ccc(Oc4ncccc4-c4ccnc(N)n4)cc3)c3ccccc23)c1 | 111
CCCCCCCCCCCCCCCC(=O)OC[C@H](O)[C@H]1OC(=O)C(O)=C1O [Ascorbyl palmitate] | 114
N#C/C(=C\c1ccc(O)c(O)c1)C(=O)NCCCCc1ccccc1 | 87.8
CCN(CC)C(=O)c1ccc(O)c(OC)c1 [Ethamivan] | 98.3
Cc1noc(NS(=O)(=O)c2cccc3c(N(C)C)cccc23)c1C | 95.7
NC(=O)Nc1cc(-c2cccc(F)c2)sc1C(=O)N[C@H]1CCCNC1 | 25.1
O=C(c1ccc(F)cc1)C1CCN(CCn2c(=O)[nH]c3ccccc3c2=O)CC1 [Ketanserin tartrate hydrate] | 112
O=C(c1ccc(F)cc1)C1CCN(CCn2c(=O)[nH]c3ccccc3c2=O)CC1 [Ketanserin tartrate] | 117
